The list shows a part of the results. Shown are side measurements of this screen, not its main read-out; they come without a call. Compounds called inactive in the main read-out are mostly missing here. Words in brackets tell the shape of the fitted curve; partial curves, single points and poor fits give uncertain potencies.
Assays:
Experiment in all cases: Confirmatory Screen for Target Class Profiling of Small Molecule Inhibitors of Methyltransferases (AID 1745852);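 also: inhibitor potency for blocking SAH production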
[1] = target: Catechol O-methyltransferase (Homo sapiens) (UniProt P21964); settings: MTase-Glo luminescence, SAH detection, recombinant enzyme; measured here: COMT inhibition potency
Sequence of UniProt P21964 (P21964 whole entry, looked up): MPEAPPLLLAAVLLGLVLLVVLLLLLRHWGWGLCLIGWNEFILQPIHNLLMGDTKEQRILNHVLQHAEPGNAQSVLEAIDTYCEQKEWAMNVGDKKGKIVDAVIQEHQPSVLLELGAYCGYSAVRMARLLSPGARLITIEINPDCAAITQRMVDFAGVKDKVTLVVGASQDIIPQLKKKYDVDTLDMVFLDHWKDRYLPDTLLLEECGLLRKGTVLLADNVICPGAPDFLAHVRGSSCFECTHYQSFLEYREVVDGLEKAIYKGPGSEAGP

[2] = target: Histamine N-methyltransferase (Homo sapiens) (UniProt P50135); settings: MTase-Glo luminescence, SAH detection, recombinant enzyme; measured here: HNMT inhibition potency
Sequence of UniProt P50135 (P50135 whole entry, looked up): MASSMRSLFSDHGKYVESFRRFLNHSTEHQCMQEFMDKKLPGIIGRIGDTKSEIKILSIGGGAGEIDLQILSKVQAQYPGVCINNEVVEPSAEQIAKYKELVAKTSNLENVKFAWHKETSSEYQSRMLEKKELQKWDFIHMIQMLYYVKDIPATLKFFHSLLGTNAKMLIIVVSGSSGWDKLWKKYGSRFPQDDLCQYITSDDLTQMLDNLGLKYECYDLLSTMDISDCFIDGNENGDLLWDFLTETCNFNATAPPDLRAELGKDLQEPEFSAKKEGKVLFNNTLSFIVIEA

[3] = target: Nicotinamide N-methyltransferase (Homo sapiens) (UniProt P40261); settings: MTase-Glo luminescence, SAH detection, recombinant enzyme; measured here: NNMT inhibition potency
Sequence of UniProt P40261 (P40261 whole entry, looked up): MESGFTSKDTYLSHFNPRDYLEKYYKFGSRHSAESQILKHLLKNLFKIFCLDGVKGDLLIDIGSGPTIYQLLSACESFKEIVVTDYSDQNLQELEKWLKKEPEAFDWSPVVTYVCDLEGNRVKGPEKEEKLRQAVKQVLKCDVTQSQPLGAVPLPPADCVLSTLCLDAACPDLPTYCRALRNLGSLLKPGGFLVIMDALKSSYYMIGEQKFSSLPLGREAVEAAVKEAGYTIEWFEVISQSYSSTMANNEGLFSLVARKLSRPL

[4] = target: Phenylethanolamine N-methyltransferase (Homo sapiens) (UniProt P11086); settings: MTase-Glo luminescence, SAH detection, recombinant enzyme; measured here: PNMT inhibition potency
Sequence of UniProt P11086 (P11086 whole entry, looked up): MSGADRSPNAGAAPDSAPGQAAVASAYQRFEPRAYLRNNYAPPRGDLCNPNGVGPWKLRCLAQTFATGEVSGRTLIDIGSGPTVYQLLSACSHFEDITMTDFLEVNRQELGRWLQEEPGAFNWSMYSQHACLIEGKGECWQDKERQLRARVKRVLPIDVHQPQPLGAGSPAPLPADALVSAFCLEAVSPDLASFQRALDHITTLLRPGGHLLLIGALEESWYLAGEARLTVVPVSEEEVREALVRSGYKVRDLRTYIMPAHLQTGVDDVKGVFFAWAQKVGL
Tags tell the direction and shape of the fitted curve.

Row | Compound | IC50 [1] | IC50 [2] | IC50 [3] | IC50 [4]
1 | C[C@@H](Oc1cc(-n2cnc3ccc(OC4CCN(C)CC4)cc32)sc1C(N)=O)c1ccccc1C(F)(F)F | 21.5 µM [falling, partial curve] | 9.61 µM [falling, partial curve] | 24.1 µM [falling, partial curve] | 21.5 µM [falling, partial curve]
2 | COc1cc2c(cc1-c1c(C)noc1C)ncc1[nH]c(=O)n(C(C)c3ccccn3)c12 (stereo not given) | 21.7 µM [falling, partial curve] | 12.2 µM [falling, partial curve] | 21.7 µM [falling, partial curve, poor fit] | 
3 | COc1cc2nc(N3CCC(N4CCCCC4)CC3)nc(NC3CCCCCC3)c2cc1OC | 27.1 µM [falling, partial curve] | 13.6 µM [falling, partial curve] | 24.1 µM [falling, partial curve] | 27.1 µM [falling, single point]
4 | O=C1c2ccccc2-c2nc3nnnn3nc21 (tested in a mixture with another compound) | 0.215 µM [falling, full curve] | 1.21 µM [falling, full curve] | 0.961 µM [falling, full curve] | 0.0681 µM [falling, full curve]
5 | CCCNc1ccc2ncc(-c3ccc4[nH]ncc4c3)n2n1 | 6.07 µM [falling, full curve] | 5.41 µM [falling, full curve] | 7.64 µM [falling, full curve] | 4.82 µM [falling, partial curve]
6 | COc1ccccc1-c1[nH]nc2ncc(C(=O)N3CCN(Cc4ccccc4)CC3)nc12 | 31.2 µM [falling, partial curve] | 35 µM [falling, partial curve] | 31.2 µM [falling, partial curve] | 31.2 µM [falling, partial curve]
7 | CC[C@H](C)NC(=O)c1sc(=S)n2c1[nH]c(=O)c1cc(Cl)ccc12 | 24.1 µM [falling, partial curve] | 19.2 µM [falling, partial curve] | 21.5 µM [falling, partial curve] | 24.1 µM [falling, partial curve]
8 | Nc1ncnc2c1ncn2[C@@H]1O[C@H](C[C@@H](N)CC[C@H](N)C(=O)O)[C@@H](O)[C@H]1O | 12.2 µM [falling, partial curve] | 17.2 µM [falling, partial curve] | 4.85 µM [falling, full curve] | 6.11 µM [falling, full curve]
9 | CC12CCC3C1C(c1c(cc(O)c(C(=O)c4ccccc4)c1O)O2)C3(C)C (stereo not given) | 18.8 µM [falling, single point] | 21.1 µM [falling, single point] | 23.7 µM [falling, partial curve, poor fit] | 23.7 µM [falling, single point]
10 | CCOC(=O)c1cnc2ccc(-c3cncc(NS(=O)(=O)c4ccccc4)c3)cn12 | 27.1 µM [falling, single point] | 38.3 µM [falling, single point] | 42.9 µM [falling, partial curve, poor fit] | 27.1 µM [falling, single point]
11 | C=Cc1cc2oc(-c3ccc(O)c(F)c3)nc2cc1O | 27.1 µM [falling, partial curve] | 24.1 µM [falling, partial curve] | 27.1 µM [falling, partial curve] | 27.1 µM [falling, partial curve]
12 | Cc1ccc(C)c(N2CCN(C(=O)c3ccc4c(=O)[nH]c5c(C(=O)NC(C)C)sc(=S)n5c4c3)CC2)c1 | 24.1 µM [falling, partial curve] | 48.2 µM [falling, partial curve, poor fit] | 21.5 µM [falling, partial curve] | 
13 | c1nc(NCC2CCOC2)c2cc(-c3ccc4c(c3)OCO4)ccc2n1 (stereo not given) | 27.1 µM [falling, single point] | 27.1 µM [falling, single point] | 30.4 µM [falling, partial curve, poor fit] | 19.2 µM [falling, partial curve]
14 | c1cn2cc(-c3ccc4cn[nH]c4c3)nc(Nc3ccc(N4CCOCC4)cc3)c2n1 | 19.2 µM [falling, partial curve] | 21.5 µM [falling, partial curve] | 21.5 µM [falling, partial curve] | 19.2 µM [falling, partial curve]
15 | CCOc1cc(OCC)c2c(-c3ccccc3)cc(=O)oc2c1 | 10.8 µM [falling, partial curve] | 17.1 µM [falling, partial curve] | 15.2 µM [falling, partial curve] | 12.1 µM [falling, partial curve]
16 | COc1cc2ncnc(Nc3cccc(I)c3)c2cc1OC | 24.1 µM [falling, partial curve] | 24.1 µM [falling, partial curve] | 24.1 µM [falling, partial curve] | 24.1 µM [falling, partial curve]
17 | COc1ccc(-c2nc3ccccc3[nH]2)cc1 | 17.1 µM [falling, partial curve] | 15.2 µM [falling, partial curve] | 15.2 µM [falling, partial curve] | 13.6 µM [falling, partial curve]
18 | O=C(NCCc1ccccc1)c1ccc2c(=O)[nH]c3c(C(=O)NCC4CCCO4)sc(=S)n3c2c1 (stereo not given) | 24.1 µM [falling, partial curve] | 24.1 µM [falling, partial curve] | 24.1 µM [falling, partial curve] | 24.1 µM [falling, partial curve]
19 | CN(Cc1nccs1)c1ncnc2ccc(-c3ccc4c(c3)OCO4)cc12 | 21.5 µM [falling, partial curve] | 21.5 µM [falling, partial curve] | 24.1 µM [falling, partial curve] | 21.5 µM [falling, partial curve]
20 | O=C(NCc1ccc(Cl)cc1)c1ccc2c(=O)[nH]c3c(C(=O)NC4CCCC4)sc(=S)n3c2c1 | 27.1 µM [falling, single point] | 27.1 µM [falling, single point] | 24.1 µM [falling, partial curve] | 30.4 µM [falling, partial curve]
21 | O=[N+]([O-])c1ccc(-[n+]2nc(-c3ccccc3)nn2-c2ccc(I)cc2)cc1 | 21.5 µM [falling, partial curve] | 21.5 µM [falling, partial curve] | 21.5 µM [falling, partial curve] | 21.5 µM [falling, partial curve]
22 | CC[N+]1(C/C2=C/CCCCCC2)CCC(NC(=O)C2c3cc(Cl)ccc3Oc3ccc(Cl)cc32)CC1 (stereo not given) | 21.5 µM [falling, partial curve] | 24.1 µM [falling, partial curve] | 21.5 µM [falling, partial curve, poor fit] | 
23 | C[C@@H](Oc1cc(-n2cnc3ccc(OC4CCN(C)CC4)cc32)sc1C(N)=O)c1ccccc1Cl | 6.07 µM [falling, full curve] | 3.04 µM [falling, full curve] | 9.61 µM [falling, full curve] | 6.81 µM [falling, full curve]
24 | Cc1cccc(N2CCN(C(=O)c3ccc4c(=O)[nH]c5c(C(=O)NC(C)C)sc(=S)n5c4c3)CC2)c1C | 24.1 µM [falling, partial curve] | 24.1 µM [falling, partial curve] | 21.5 µM [falling, partial curve] | 34.1 µM [falling, partial curve, poor fit]
25 | O=C(NCc1ccc2c(c1)OCO2)c1sc(=S)n2c1[nH]c(=O)c1ccc(Cl)cc12 | 21.5 µM [falling, partial curve] | 21.5 µM [falling, partial curve] | 21.5 µM [falling, partial curve] | 21.5 µM [falling, partial curve]
26 | O=C1NC(=O)C(c2c[nH]c3ccccc23)=C1c1c[nH]c2ccccc12 | 27.3 µM [falling, partial curve] | 27.3 µM [falling, single point] | 48.5 µM [falling, partial curve, poor fit] | 24.3 µM [falling, partial curve]
27 | O=C(Nc1cccc(Nc2cc(Nc3cccc(C(F)(F)F)c3)ncn2)c1)C1CC1 | 19.2 µM [falling, partial curve] | 19.2 µM [falling, partial curve] | 17.1 µM [falling, partial curve] | 19.2 µM [falling, partial curve]
